Measurements published in paper PMC4336329 (PLoS ONE, 2015).
Among all 310,000 compounds or so, about 14,000 (4.5%) showed an effect of 50% or more. The effect is printed as a negative number. This is one part of the list.

biological target: human ether-à-go-go-related gene (hERG) potassium channel (human, UniProt Q12809); test: primary screen, population patch clamp on CHO cells stably expressing hERG
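Further: peak tail current of the secondary pulse compared with the same well before compound.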

Sequence of human ether-à-go-go-related gene (hERG) potassium channel (Q12809 whole entry, looked up): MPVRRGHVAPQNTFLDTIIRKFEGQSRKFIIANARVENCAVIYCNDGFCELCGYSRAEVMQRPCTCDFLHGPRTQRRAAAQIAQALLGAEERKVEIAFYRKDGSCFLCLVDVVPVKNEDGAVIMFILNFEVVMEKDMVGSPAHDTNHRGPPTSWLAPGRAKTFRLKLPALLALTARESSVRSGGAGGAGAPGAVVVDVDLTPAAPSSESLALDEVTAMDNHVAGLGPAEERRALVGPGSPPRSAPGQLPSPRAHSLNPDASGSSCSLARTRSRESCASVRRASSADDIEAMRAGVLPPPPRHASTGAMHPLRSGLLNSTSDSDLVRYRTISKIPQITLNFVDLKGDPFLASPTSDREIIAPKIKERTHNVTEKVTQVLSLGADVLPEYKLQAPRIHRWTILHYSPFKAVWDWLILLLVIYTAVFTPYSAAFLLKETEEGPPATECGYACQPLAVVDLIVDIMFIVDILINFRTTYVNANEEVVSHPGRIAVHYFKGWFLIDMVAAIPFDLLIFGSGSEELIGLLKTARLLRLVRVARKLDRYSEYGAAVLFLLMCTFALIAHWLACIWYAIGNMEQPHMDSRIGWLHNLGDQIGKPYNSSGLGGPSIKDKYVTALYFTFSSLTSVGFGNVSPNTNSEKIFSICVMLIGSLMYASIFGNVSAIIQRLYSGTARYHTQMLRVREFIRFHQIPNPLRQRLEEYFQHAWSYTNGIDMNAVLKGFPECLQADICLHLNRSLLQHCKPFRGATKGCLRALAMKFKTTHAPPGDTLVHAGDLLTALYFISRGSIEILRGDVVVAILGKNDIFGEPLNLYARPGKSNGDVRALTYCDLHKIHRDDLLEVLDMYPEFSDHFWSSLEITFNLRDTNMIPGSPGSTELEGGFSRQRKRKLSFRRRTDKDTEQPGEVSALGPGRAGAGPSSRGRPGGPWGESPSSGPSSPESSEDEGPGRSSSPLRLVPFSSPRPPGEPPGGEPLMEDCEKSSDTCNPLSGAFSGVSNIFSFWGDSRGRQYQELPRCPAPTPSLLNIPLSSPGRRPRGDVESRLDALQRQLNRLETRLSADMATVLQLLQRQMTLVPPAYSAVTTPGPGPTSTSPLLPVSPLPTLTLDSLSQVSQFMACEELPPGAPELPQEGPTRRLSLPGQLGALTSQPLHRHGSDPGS

Structure (SMILES)	hERG current change (%, negative = inhibition) at 10uM
O=C(CSc1ccc(-c2ccco2)nn1)Nc1ccc(F)cc1	-68.5%
COC(CNC(=O)c1cccc(-n2c(=S)[nH]c3cc(Cl)ccc3c2=O)c1)OC	17.2%
COCCCNC(=O)CN1C(=O)CSc2ncccc21	1.13%
Cc1oc(-c2ccccc2F)nc1CS(=O)(=O)CC(=O)NCCCN1CC(C)CC(C)C1 (stereo not shown)	-17.8%
Cc1cccc(NC(=S)N(c2ccccc2)C(C)C)c1C	7.95%
CCC(C(=O)NCCc1ccc(S(N)(=O)=O)cc1)c1ccccc1 (stereo not shown)	-1.24%
CCN(CC)C(=O)Cn1cc(C(=O)C(=O)NCCCN2CCCCC2)c2ccccc21	13.1%
Cc1ccc2c(c1)C1CN(C)CCC1N2C(=S)Nc1cccnc1 (stereo not shown)	-14%
O=C(c1ccc2c(=O)n(Cc3ccccc3Cl)c(=S)[nH]c2c1)N1CCCC1	4.9%
O=C(Nc1ccncc1)c1ccc2c(c1)OCCO2	11.8%
Cn1cnc2cc(NC(=O)COc3ccccc3)ccc21	23.8%
CCn1c2ccccc2c2cc(CNCCCN3CCOCC3)ccc21.Cl	-4.87%
CC(=O)Nc1ccc(S(=O)(=O)Nc2nc3ccccc3nc2Nc2ccc3ccccc3c2)cc1	12.8%
Cc1ccc(C(C)C)c(OCC(=O)N/N=C/c2cccn2C)c1	3.2%
Cc1ccc(C(=O)OCC(=O)Nc2ccccc2Cl)c(O)c1	7.83%
CCC1=C(OC(=O)N(CC)CC)N2C(=O)OC(=NCC3CC3)[C@]2(Cc2ccccc2)[C@H]2C1=CC[C@H]1C(=O)N(CC)C(=O)[C@H]12	-23.4%
O=C(NC1CC2CCCC(C1)N2)c1ccccc1 (stereo not shown)	16.6%
Cc1cccc2sc(N(CCN(C)C)C(=O)c3cc(Cl)sc3Cl)nc12.Cl	-22.7%
O=C1/C(=C\c2ccccc2)CCc2c1[nH]c1ccccc21	9.57%
Cc1cc(C)n(C(=O)CNC(=O)Cc2ccccc2)n1	6.37%
COC(=O)c1cccc(COC(=O)c2ccc(N(C)C)cc2)c1	-3.98%
CCc1ccc(C2C3=C(CC(C)(C)CC3=O)OC3=C2C(=O)CC(C)(C)C3)cc1	1.57%

Structure (SMILES)	hERG current change (%, negative = inhibition) at 10uM
COC(=O)CCNC(=O)Cc1c(C)n(C(=O)c2ccc(Cl)cc2)c2ccc(OC)cc12	-17%
COc1ccc(CNC(=O)C(C)OC(=O)CN2C(=O)COc3ccccc32)cc1 (stereo not shown)	-10%
O=C(NCCCN1CCCC(O)C1)c1cc(COc2ccc(F)cc2F)on1 (stereo not shown)	-4.32%
O=c1[nH]n(Cc2ccccc2)c(=O)c2ccccc12	-1.48%
O=C(NCc1ccc(F)cc1)c1cc(S(=O)(=O)N2CCCCC2)c[nH]1	-3.62%
CCOC(=O)/C(C#N)=C1/C=Nc2ccccc2N1	-5.77%
O=C(/C=C/c1ccccc1)N/C(=C/c1ccccc1)C(=O)N1CCCCC1	-58.7%
CCn1c(=S)sc2c(=O)n(CC(=O)Nc3ccc(OC)cc3)c(C)nc21	5.68%
CNC(=O)CC1C(=O)N(C)C(=S)N1NC(=O)c1ccc(Cl)cc1 (stereo not shown)	-2.06%
Cc1nn(-c2ccccc2)c(C)c1C(=O)OCC(=O)Nc1cccc(S(N)(=O)=O)c1	-4.99%
COc1ccccc1CN1CCN(C(=O)c2cccc3ccccc23)CC1	3.48%
O=[N+]([O-])c1ccc(N2CCCC2)c(F)c1Br	2.16%
CCCN(CCC)S(=O)(=O)c1ccc2c(c1)CCCN2C(C)=O	-47.2%
NC(=O)COC(=O)c1sc2cc(F)ccc2c1Cl	-0.0484%
COc1ccc(CC(=O)NCc2nnc(SCC(=O)Nc3ccc(OC)cc3)n2C)cc1	4.08%
COc1ccc(-c2cc3c(=O)n(CC(=O)N4CCN(C)CC4)ncn3n2)cc1	-18.8%
CCc1ccc2nc(N(CCCN(C)C)C(=O)c3ccc(S(=O)(=O)N4CCCC4)cc3)sc2c1.Cl	-67.7%
C/C=C/c1ccc(OCCN2CCc3ccccc3C2)c(OC)c1	-77.7%
O=C(NCCC1CCCCN1S(=O)(=O)c1ccc(F)cc1)C(=O)Nc1ccccc1 (stereo not shown)	-25.6%
Cc1ccc(NC(=O)CN(C)C(=O)c2cccc(S(=O)(=O)NCc3ccccc3)c2)cc1	-26.5%
Cc1cccc(C(=O)N2CCNC(=O)C2CC(=O)Nc2cccc(Cl)c2)c1 (stereo not shown)	-1.71%
CCOc1ccc(/C=N/NC(=O)CN2CCCCCCC2)cc1	-63%

Structure (SMILES)	hERG current change (%, negative = inhibition) at 10uM
Cc1ccc(Cc2cnc(NC(=O)/C(C#N)=C/c3ccc(-c4cccc([N+](=O)[O-])c4)o3)s2)cc1	6.05%
CCC(=O)Nc1c2c(nn1-c1ccc(OC)cc1)CS(=O)C2 (stereo not shown)	9.94%
O=C(CNc1ccc2ccccc2c1)N/N=C/c1ccc([N+](=O)[O-])o1	1.03%
COc1ccc(C23CC4CC(CC(C(=O)O)(C4)C2)C3)c(F)c1	13.7%
O=c1[nH]nc(-c2ccc(NCCO)c([N+](=O)[O-])c2)c2ccccc12	31.9%
CC(C)=CCOc1ccc([C@@H]2COc3c(ccc4c3C=CC(C)(C)O4)C2)c(O)c1	19.5%
Cc1nc(-c2ccc(-n3nncc3-c3ccco3)cc2)cs1	-34.2%
COC(=O)c1ccc(COC(=O)C2CCN(S(=O)(=O)c3ccc(C)c(C)c3)CC2)o1	9.51%
O=C(NCC1CCCN1S(=O)(=O)c1ccccc1)c1cccc(Cl)c1 (stereo not shown)	-40.4%
COc1ccccc1NC(=O)c1ccc(CS(=O)(=O)c2ccc(C)cc2)cc1	4.5%
Cc1ccc(NC2=NC(c3ccc(F)cc3)n3c(nc(C)cc3=O)N2)c(C)c1 (stereo not shown)	21.8%
CN(C)CCN1C(=O)C2C3C=CC(C3)C2C1=O (stereo not shown)	20.6%
Cc1ccc(NC(=S)N2CCn3cccc3C2c2cccnc2)cc1 (stereo not shown)	-37.3%
COc1ccc(N/N=C(C)/C(=N/O)C(=O)Nc2ccccc2)cc1	-12.1%
CCOC(=O)Cc1cnc(NC(=O)CSc2nc(N)cc(N)n2)s1	-2.73%
NC(=O)CN1C(=O)C(=O)N(Cc2ccc(Cl)cc2)C1=O	12.6%
COc1ccc(C2Nc3ccccc3C(=O)N2Cc2ccccc2)cc1COc1ccccn1 (stereo not shown)	-49.4%
Cc1nc2ncnn2c(N2CCN(C(c3ccccc3)c3ccccc3)CC2)c1C	-47.7%
CCOc1ccc(C(c2c(C)[nH][nH]c2=O)c2c(C)[nH][nH]c2=O)cc1OC	2.49%
Cc1[nH]nc2nc(SCC(=O)NCCC3=CCCCC3)n(-c3ccc(Br)cc3)c(=N)c12	6.42%
CSc1nnc([C@@H](N)Cc2c[nH]c3ccccc23)o1.Cl	30.1%
CC(C)(C)NC(=O)COC(=O)c1nsc(Cl)c1Cl	13.6%

Structure (SMILES)	hERG current change (%, negative = inhibition) at 10uM
CCc1ccc(NC(=O)NNC(=O)CCc2ccccc2)cc1	7.67%
COc1ccc(C(=O)c2sc3nc(-c4ccc(OC)cc4)ccc3c2N)cc1	24.2%
O=C(CCc1nnc2ccc(N3CCCCC3)nn12)NCC1CCN(Cc2ccc(F)cc2)CC1	-24.1%
CCOc1ccc(C(=O)Nc2c3c(nn2-c2ccc(F)cc2)CS(=O)C3)cc1 (stereo not shown)	-1.14%
Cc1ccc(C(=O)OCC(=O)N2CCC(c3ccccc3)=N2)c(C)c1	-1.4%
Cc1ccccc1-n1c(C)cc(/C=C(\C#N)C(=O)NCC2CCCO2)c1C (stereo not shown)	-7.78%
Nc1cc(=O)[nH]c(SC/C=C/c2ccccc2)n1	-6.72%
CCN(CC)S(=O)(=O)c1cc(-c2nnc(-c3ccc(Br)cc3)o2)ccc1Br	12.7%
CC(=O)c1ccc(-n2ccnc2)cc1	10.6%
N#CCCn1cc(/C=N/O)c(-c2ccccc2)n1	-2.58%
NC(=S)NNC(=O)[C@@H]1CCCC[C@@H]1C(=O)O	39.9%
CCOC(=O)CCCCC(=O)c1[nH]c(=O)[nH]c1Cn1cnc2ccccc21	9.23%
CCc1ccc2nc(NC(=O)CSCc3c(C)noc3C)sc2c1	-14%
COc1ccccc1OCCNC(=O)CNC(=O)c1ccc(C(C)(C)C)cc1	-18.8%
Cc1ccnc(Nc2nc(-c3ccc(F)cc3)cs2)c1	16.3%
CC1CCCCC1NC(=O)c1c(O)nc2ccccn2c1=O (stereo not shown)	-7.2%
COCCNC(=O)c1cc2cc(Br)cc(Br)c2oc1=O	40.3%
Nc1nc(CSc2nnnn2-c2ccc(F)c(Cl)c2)nc(N2CCOCC2)n1	-20.5%
NC(=O)c1cc(S(=O)(=O)Nc2ccccc2)cs1	1.39%
CCc1c(O)nc(SCC(=O)N2CCOCC2)n(-c2ccccc2)c1=O	26.3%
COC(=O)CC1(c2ccc(OC)cc2)C(=O)c2ccccc2C1=O	-8.58%
O=C(COc1ccc(Br)cc1)N(Cc1cccs1)C1CCS(=O)(=O)C1 (stereo not shown)	-51.7%
